Residues, ends and D or L forms follow the SMILES beside them.
System: C. albicans
Assay: Peptide or protein/Fluconazole combination MIC and FICI

Compound: CC[C@H](C)[C@H](NC(=O)[C@H](CCCNC(=N)N)NC(=O)[C@@H](NC(=O)[C@@H](NC(=O)[C@H](Cc1ccccc1)NC(=O)[C@@H](NC(=O)[C@H](CCCNC(=N)N)NC(=O)[C@H](CCCNC(=N)N)NC(=O)[C@H](CCCNC(=N)N)NC(=O)[C@H](Cc1ccccc1)NC(=O)CNC(=O)[C@H](CCCNC(=N)N)NC(=O)[C@H](CS)NC(=O)[C@H](CCCNC(=N)N)NC(=O)CNC(=O)CN)C(C)C)C(C)C)[C@@H](C)O)C(=O)N[C@@H](CS)C(N)=O [GMA4C_V3A] (H-GGRCRGFRRRVFVTRIC-NH2; N-terminus assumed)
- MIC in combination μg/ml: 2.9/8 μg/ml
